Source: article PMC4336329 (PLoS ONE, 2015)
The campaign covered roughly 310,000 compounds. About 14,000 (4.5%) showed an effect of 50% or more. Effects have a minus sign here. Some of the results follow.

Biological target: human ether-à-go-go-related gene (hERG) potassium channel (human, UniProt Q12809)
Test: primary screen, population patch clamp on CHO cells stably expressing hERG
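Also: peak tail current of the secondary pulse compared with the same well before compound.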

Chain of human ether-à-go-go-related gene (hERG) potassium channel (Q12809 whole entry, looked up): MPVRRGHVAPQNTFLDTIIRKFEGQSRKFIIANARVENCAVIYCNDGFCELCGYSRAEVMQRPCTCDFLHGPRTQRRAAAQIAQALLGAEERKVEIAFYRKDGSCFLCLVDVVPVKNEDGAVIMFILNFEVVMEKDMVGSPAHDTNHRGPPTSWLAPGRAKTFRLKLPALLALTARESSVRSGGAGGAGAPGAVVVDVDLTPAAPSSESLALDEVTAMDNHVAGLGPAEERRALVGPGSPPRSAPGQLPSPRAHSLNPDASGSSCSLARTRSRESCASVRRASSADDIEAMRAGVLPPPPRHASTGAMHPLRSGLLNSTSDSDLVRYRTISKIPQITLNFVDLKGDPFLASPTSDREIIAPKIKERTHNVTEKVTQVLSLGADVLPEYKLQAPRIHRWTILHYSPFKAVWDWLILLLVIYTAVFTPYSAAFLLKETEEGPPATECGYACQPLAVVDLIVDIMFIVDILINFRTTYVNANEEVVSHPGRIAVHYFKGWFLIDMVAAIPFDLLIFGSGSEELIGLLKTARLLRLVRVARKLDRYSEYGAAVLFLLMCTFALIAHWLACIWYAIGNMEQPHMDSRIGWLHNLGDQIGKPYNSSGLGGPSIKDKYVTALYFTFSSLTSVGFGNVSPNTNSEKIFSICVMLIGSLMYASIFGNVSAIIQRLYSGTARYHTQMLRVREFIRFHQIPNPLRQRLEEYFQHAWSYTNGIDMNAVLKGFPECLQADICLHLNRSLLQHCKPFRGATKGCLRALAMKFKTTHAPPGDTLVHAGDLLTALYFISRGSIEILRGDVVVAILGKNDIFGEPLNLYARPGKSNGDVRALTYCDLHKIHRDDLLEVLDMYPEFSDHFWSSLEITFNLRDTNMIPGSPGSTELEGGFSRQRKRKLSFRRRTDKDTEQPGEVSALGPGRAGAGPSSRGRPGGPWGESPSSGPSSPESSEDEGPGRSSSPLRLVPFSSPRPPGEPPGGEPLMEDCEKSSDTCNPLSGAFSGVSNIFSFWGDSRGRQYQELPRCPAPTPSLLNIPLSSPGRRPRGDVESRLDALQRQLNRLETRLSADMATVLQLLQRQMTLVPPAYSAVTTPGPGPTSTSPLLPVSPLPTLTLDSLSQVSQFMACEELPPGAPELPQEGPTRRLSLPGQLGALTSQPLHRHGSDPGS

Compound | hERG current change (%, negative = inhibition) at 10uM
CCN(CC(=O)Nc1ccc(C(=O)Nc2ccc(OC)cc2)cc1)Cc1nc2ccccc2c(=O)[nH]1 | 5.15%
C/C(=N\N=C(N)N)c1cccc([N+](=O)[O-])c1 | -32.1%
O=C(NCCC1=CCCCC1)c1c(O)nc2ccccn2c1=O | 0.215%
COc1cccc(CNC(=O)c2cc(COc3c(F)cccc3F)on2)c1 | -1.04%
CCOc1cc(/C=C2/C(=O)ON=C2C)ccc1OCc1ccc(F)cc1 | 7.07%
Cc1[nH]nc2ncc(C(=O)c3cc(Cl)cc(Cl)c3O)cc12 | 9.79%
Cc1cc(S(=O)(=O)NCCc2ccncc2)cc(C)c1F | 2.81%
CCOC(=O)C1CCN(C(=O)C(CCSC)NC(=O)c2ccccc2OC)CC1 (stereo not drawn) | -16.2%
CCCCn1c(N)c(N(CCOC)C(=O)c2ccc(-c3ccccc3)cc2)c(=O)[nH]c1=O | 4.65%
COc1ccc(N(Cc2cc3cc(C)ccc3[nH]c2=O)C(C)=O)cc1 | 11.2%
CCOc1ccc(C2=C(C=Nc3c(C)n(C)n(-c4ccccc4)c3=O)C(c3ccc(F)cc3)c3ccccc3O2)cc1 (stereo not drawn) | 4.04%
O=C(Cn1cnc2ccc(Cl)cc2c1=O)c1cccs1 | 4.78%
CC(=O)Nc1ccc(SCc2c(C)noc2C)cc1 | 3.5%
COC(=O)c1c(C(=O)OC)c(-c2cccc(C)c2)n2c1CS(=O)(=O)C2 | -22.4%
N#CC1=C(N)NC(SCC(=O)c2ccc(Cl)cc2)=C(C#N)C12CCCC2 | -20.6%
CCNC(=O)C(=O)NCC1OCCCN1S(=O)(=O)c1ccc(F)cc1C (stereo not drawn) | -1.08%
C=CCn1c(SCC(=O)c2c(N)n(CCC)c(=O)n(C)c2=O)nc2sc(CC)cc2c1=O | 10%
O=C(NCc1ccccc1F)C1CCC(=O)N(Cc2ccc(Cl)cc2)C1 (stereo not drawn) | -42.1%
CCn1c(-c2c(Cl)c(C)nn2C)n[nH]c1=S | 10.9%
Cc1ccccc1OCCC(=O)OCC(=O)NC(C)c1ccccc1 (stereo not drawn) | -28%
O=C(O)c1cccc(NC(=O)C23CC4CC(C2)CC(n2cnc(Cl)n2)(C4)C3)c1 | 6.02%
COC(=O)c1cc2occc2n1CC(=O)Nc1ccc(OC)c(OC)c1 | 4.76%

Compound | hERG current change (%, negative = inhibition) at 10uM
Cc1ccc(NC(=O)CN(C)C(=O)CSc2nc(C)cs2)cc1 | 2.57%
COCC(C)n1c(C)cc(C(=O)Cn2nc(C(=O)O)c3ccccc3c2=O)c1C (stereo not drawn) | 13.8%
CC1(C)C2CC=C(/C=N/NC(=O)C3CC3)C1C2 (stereo not drawn) | 20.2%
CCn1ncc(Br)c1C(=O)Nc1ccc(F)cc1F | 0.93%
Cc1cc(CN2CCC(n3nccc3NC(=O)c3ccccc3Cl)CC2)cc(C)c1O | -74.2%
Cc1csc(CCc2nc(C)cs2)n1 | 9.29%
CC(=O)Nc1ccc(NC(=O)CSc2nnc(NC(=O)c3cccc(F)c3)s2)cc1 | 20.2%
Cc1nc(-c2ccccc2Cl)sc1C(=O)/C=C/N(C)C | 14.4%
O=C(O)CCC(=O)N(Cc1cccs1)Cc1cccs1 | -2.07%
NC(=O)c1ccc(NC(=O)CCN2C(=O)c3ccccc3C2=O)cc1 | 16%
COC(=O)c1ccc2c(=O)n(CCCN3CCCC3=O)c(=S)[nH]c2c1 | -5.1%
Cc1cc2c(cc1S(=O)(=O)Nc1c(C)cccc1C)n(C)c(=O)c(=O)n2C | -0.831%
C=C(C)CN1CC[C@]23c4c5ccc(O)c4O[C@H]2c2[nH]c4ccccc4c2C[C@@]3(O)C1C5.Cl.O | 4.9%
O=C1COCCOCCOCC(=O)NCCN1 | 23.4%
COc1ccc(CCNC(=O)CSc2cn(Cc3ccccc3)c3ccccc23)cc1OC | 3.04%
Cc1csc(NC(=O)c2sc3nc(-c4cccs4)ccc3c2N)n1 | 5.65%
Cc1cc(S(=O)(=O)n2cnc3cc([N+](=O)[O-])ccc32)ccc1Cl | -2.69%
O=C(Nc1ccc2c(c1)OCO2)C1CCCN1C(=O)OCc1ccccc1 (stereo not drawn) | -0.907%
COc1ccc(CCNC(=O)C2CCCN2C(=O)Nc2cccc(OC)c2)cc1 (stereo not drawn) | 10.9%
Cc1ccc(-c2csc3ncn(CC(N)=O)c(=O)c23)cc1C | 12.9%
CCNc1nc(NCC)n2c(SCC(=O)N(CC)C3CCCCC3)nnc2n1 | -37.2%
O=C(Cc1cccs1)Nc1nnc(SCC(=O)N2CCCCC2)s1 | -3.21%

Compound | hERG current change (%, negative = inhibition) at 10uM
CC(NC(=O)c1cc(-c2ccc(Br)cc2)on1)c1ccccc1 (stereo not drawn) | 2.49%
CCOc1ccc(-c2nnc(-c3ccco3)o2)cc1OCC | -4.11%
O=C(NC1CCCCC1)C(c1ccncc1)N(C(=O)c1csnn1)c1ccc(F)cc1 (stereo not drawn) | 24.5%
Cc1ccc(S(=O)(=O)N(CC(=O)N2CCN(c3ccc(F)cc3)CC2)C2CCCCC2)cc1 | -43.7%
C#C[C@@]1(O)CCC2C3CCC4=C/C(=N/OCC(=O)NC(C(=O)O)C(C)O)CC[C@]4(C)C3CC[C@@]21C (stereo partly drawn) | 13.6%
CC(Oc1ccc(Cl)cc1)C(=O)Nc1cccc(S(=O)(=O)N2CCOCC2)c1 (stereo not drawn) | -39.2%
O=C(COC(=O)C1=COCCO1)Nc1ccccc1OC(F)F | 4.81%
CC(Oc1ccccc1)C(=O)N1CCN=C1SCc1ccccc1 (stereo not drawn) | -10%
O=C(c1ccc(Cl)cc1)C1CCN(C(=O)N2CCOCC2)CC1 | -3.46%
CCN(CC)S(=O)(=O)c1cc(C(=O)OCC(=O)c2ccc3c(c2)NC(=O)CO3)ccc1F | 0.331%
Cc1cccc(NC(=S)NCC(C)CSc2ccc(Cl)cc2)c1 (stereo not drawn) | 32.5%
CCOC(=O)c1ccccc1NS(=O)(=O)c1ccc(C)cc1 | -3.6%
CCCCOC(=O)C(C)c1c(C)[nH]c(=S)[nH]c1=O (stereo not drawn) | 20.8%
O=[N+]([O-])c1ccc2ccn(C3OCC(O)C(O)C3O)c2c1 (stereo not drawn) | 7.86%
COc1ccc(-n2ccc(=O)c(C(=O)Nc3ccc(S(=O)(=O)Nc4nccs4)cc3)n2)cc1 | 11.9%
Cc1cccc(NC(=O)NCCN2CCN(c3ccccc3)CC2)c1C | -9.69%
CCn1c(COc2ccc(C)cc2)nc2ccccc21 | -7.31%
Cc1ccc(S(=O)(=O)N2CCC(C(=O)NCC3CCCCC3)CC2)cc1 | -5.7%
CC(C)(C)C(=O)O/N=C(\N)c1ccc(Oc2cc(Cl)cc(Cl)c2)c([N+](=O)[O-])c1 | 5.82%
CN(C)C(=O)c1ccc(Nc2nnc(-c3ccc(O)cc3)c3ccccc23)cc1 | 3.89%
CSc1nsc(SCC(=O)N2CCN(c3ccccc3)CC2)n1 | -29.2%
CCN(CC)c1nc2cc(C)ccc2cc1/C=C(\C#N)C(N)=O | 13.6%

Compound | hERG current change (%, negative = inhibition) at 10uM
O=C(COc1ccc(Cl)cc1[N+](=O)[O-])N1CCCCCC1 | 22.3%
COc1ccccc1NC(=O)CCc1nnc2ccc(N3CCN(C)CC3)nn12 | 14.7%
COc1ccc(CN2CCN(C(C)C(=O)N3CCc4ccccc43)CC2)cc1OC (stereo not drawn) | -74%
c1ccc(N=Nc2ccc3cccccc2-3)cc1 | 8.38%
CCOC(=O)O[C@]1(C(=O)OCCl)CC[C@H]2[C@@H]3CCC4=CC(=O)C=C[C@]4(C)[C@H]3[C@@H](O)C[C@@]21C | 15.1%
Cc1ccccc1C(=O)N1CCN(c2ccc(NC(=O)c3cccnc3)cc2)CC1 | -23%
COc1cc(-c2nnc(NC(=O)CS(=O)(=O)c3ccc(F)cc3)o2)cc(OC)c1OC | 22.4%
COc1ccc2c(c1)c(CC(=O)OCC(N)=O)c(C)n2C(=O)c1ccc(Cl)cc1 | -3.15%
O=C(Nc1nccs1)c1ccc(-c2ccc(F)cc2)o1 | -0.742%
COc1ccc(C(=O)CN2CCN(S(=O)(=O)c3cccc([N+](=O)[O-])c3)CC2)cc1 | -112%
COc1ccc(N2C(=NC(=O)c3ccc(Br)cc3)SC3CS(=O)(=O)CC32)cc1 (stereo not drawn) | 6.78%
Cc1nc(Cl)c(C#N)cc1-c1ccccc1 | -12.2%
Cc1ccc(-c2cc(C(=O)N3CCCc4ccccc43)c3ccccc3n2)cc1 | -2.95%
Brc1ccc(-c2cn3ccccc3n2)s1 | -15.4%
Cc1nonc1N1CCN(Cc2cn[nH]c2-c2ccc3c(c2)OCO3)CC1 | -26.3%
CCCCOC(=O)C1=C(C)NC(=O)NC1c1cc2c(cc1Br)OCO2 (stereo not drawn) | 7.08%
CN(C)C(/C=C/Nc1cccc(Br)c1)=C(C#N)C#N | 9.79%
Cc1c(/C=C/C(=O)c2ccc(C(C)C)cc2)cnn1C | -5.37%
COc1ccc(-c2cn3cc(C)ccc3n2)cc1Br | 16.6%
CC1CCCCC1NC(=S)Nc1ccc(Cl)cc1Cl (stereo not drawn) | 4.31%
COc1ccc(-c2cc(C(=O)N3CCN(c4ccc(F)cc4)CC3)no2)cc1OC | 12.5%
